The values that follow come from PMC6919601, “Identification of Plasmodium dipeptidyl aminopeptidase allosteric inhibitors by high throughput screening” (PLoS ONE, 2019).

Screen size: about 110,000 compounds; about 230 (0.21%) showed an effect of 50% or more. The list shows a part of the results.
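Note: 30 min substrate incubation versus DMSO and 10 µM JCP410 controls.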

For this assay, the target named is DPAP1 (Plasmodium falciparum, UniProt Q8IIJ9). As to the kind of experiment: primary screen, percent inhibition; read by cleavage of a fluorogenic dipeptide substrate; higher = more effect of the substance. On the set-up: species or system P. falciparum D10 trophozoite lysates; single well.
Chain of DPAP1 (Q8IIJ9 whole entry, looked up): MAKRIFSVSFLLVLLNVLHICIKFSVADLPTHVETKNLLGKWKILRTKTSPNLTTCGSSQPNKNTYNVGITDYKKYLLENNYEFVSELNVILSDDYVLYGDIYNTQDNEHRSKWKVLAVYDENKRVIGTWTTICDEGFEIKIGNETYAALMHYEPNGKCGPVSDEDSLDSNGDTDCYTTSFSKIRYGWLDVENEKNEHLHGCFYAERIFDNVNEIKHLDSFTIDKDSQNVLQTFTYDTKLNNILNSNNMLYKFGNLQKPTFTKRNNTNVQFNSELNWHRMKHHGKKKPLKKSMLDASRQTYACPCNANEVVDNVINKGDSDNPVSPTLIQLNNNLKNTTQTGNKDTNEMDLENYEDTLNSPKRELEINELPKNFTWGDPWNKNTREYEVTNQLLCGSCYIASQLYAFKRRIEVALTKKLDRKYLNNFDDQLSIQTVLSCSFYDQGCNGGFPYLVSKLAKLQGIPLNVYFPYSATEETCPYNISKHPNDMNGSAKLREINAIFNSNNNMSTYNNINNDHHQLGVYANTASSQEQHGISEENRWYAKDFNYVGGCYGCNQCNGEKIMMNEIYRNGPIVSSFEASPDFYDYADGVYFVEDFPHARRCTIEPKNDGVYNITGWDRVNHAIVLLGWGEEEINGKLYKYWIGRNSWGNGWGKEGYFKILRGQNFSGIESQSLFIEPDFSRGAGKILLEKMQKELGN
With `COC(=O)c1cc(S(=O)(=O)NCc2ccc3c(c2)OCO3)c[nH]1`, the “% Inhibition @ 10 uM” value is recorded as 5.64%.

Turning to `CC1CC2(C)CC(C(=O)O2)C1C(=O)O` (stereo not shown), the “% Inhibition @ 10 uM” value is -1.76%.

Regarding `CCCCN1C(=O)C2Cc3c([nH]c4ccccc34)C(c3cccc(OC)c3OC)N2C1=O` (stereo not shown), the “% Inhibition @ 10 uM” value is reported as -1.8%.

Consider `CSc1ncc(C(=O)NCCc2ccc(Cl)cc2)c(-c2ccccc2)n1`, for which the “% Inhibition @ 10 uM” value is on record as -2.48%.

`COc1ccc(OCc2nn3c(-c4ccncc4)nnc3s2)cc1`: the “% Inhibition @ 10 uM” value is 13%.

With `CCc1nc2c(sc3nc(N4CCOCC4)c4c(c32)CC(C)(C)OC4)c(=O)o1`, the “% Inhibition @ 10 uM” value is -4.74%.

As for `COC(=O)C1=C(C)N=C(C)/C(=C(/O)OC)C1c1ccncc1` (stereo not shown), the “% Inhibition @ 10 uM” value was -2.6%.

As to `COc1cccc(-c2cc(C(=O)N[C@@H](CC(C)C)C(=O)NCC#N)cc(-c3cccc(OC)c3)c2)c1`, the “% Inhibition @ 10 uM” value is 0.174%.

`O=C1c2ccccc2C(O)(Cc2ccccc2)N1Cc1ccc2c(c1)OCO2` (stereo not shown): the “% Inhibition @ 10 uM” value is 1.62%.

Regarding `CCOC(=O)N1CCN(C(=O)c2cc3c(s2)-c2ccccc2SC3)CC1`, the “% Inhibition @ 10 uM” value was determined as 1.15%.

Take `COc1cccc(NC(=O)c2ccc3c(c2)C(=O)N(C(C)(C)C)C3=O)c1`: the “% Inhibition @ 10 uM” value is recorded as -6.39%.

As for `Cc1nn2c(C(F)(F)F)cc(-c3ccc(Cl)cc3)nc2c1C(=O)NCCCn1ccnc1`, the “% Inhibition @ 10 uM” value was -0.67%.

As for `CC(C)C(=O)Nc1sc2c(c1C#N)CCCCC2`, the “% Inhibition @ 10 uM” value is recorded as 5.59%.

As for `Cc1c(-c2ccccc2)nn2c(O)c3c(nc12)CCC3`, the “% Inhibition @ 10 uM” value is on record as -0.274%.

`Cc1ccc(C(=O)N/C(=C\c2ccco2)C(=O)N2CCC(C(N)=O)CC2)cc1C`: the “% Inhibition @ 10 uM” value worked out at 0.777%.

Take `COc1ccc(-c2nc3n(n2)C(c2ccccc2F)C(C(N)=O)=C(C)N3)cc1OC` (stereo not shown): the “% Inhibition @ 10 uM” value is reported as 0.275%.

Consider `CCOc1ccc(-c2cnc(S)nc2N)cc1`, for which the “% Inhibition @ 10 uM” value is given as -1.2%.

Consider `Cc1cc(F)c(F)cc1C(=O)Cn1cncn1`, for which the “% Inhibition @ 10 uM” value is -3.74%.

In the case of `COc1ccc(N2CCN(C(=O)C3CCCCC3)CC2)cc1`, the “% Inhibition @ 10 uM” value is recorded as -6.64%.

For the compound `Clc1nc(-c2cccnc2)nc2ccccc12`, the “% Inhibition @ 10 uM” value was -2.35%.

Consider `O=C(O)c1ccc(Oc2ccc(Oc3ccc(C(=O)O)cc3)cc2)cc1`, for which the “% Inhibition @ 10 uM” value is -4.02%.

`Cc1cc(O)nc2cc(-c3ccccc3)nn12`: the “% Inhibition @ 10 uM” value is given as -4.39%.

`C=Cc1ccc(Cn2c(C(=O)O)c(CNCCc3ccc(OC)c(OC)c3)c3ccccc32)cc1`: the “% Inhibition @ 10 uM” value came to 0.277%.

Regarding `Cc1cc(C)c(C#N)c(S)n1`, the “% Inhibition @ 10 uM” value was 89.9%.

For the compound `O=C(NCCc1ccncc1)N1CCOCC1`, the “% Inhibition @ 10 uM” value was -1.85%.

`c1ccc2oc(-c3nn4c(-c5ccncc5)nnc4s3)cc2c1`: the “% Inhibition @ 10 uM” value is reported as 8.94%.

Take `O=C(COc1ccccc1)N(Cc1ccccc1)c1cccc([N+](=O)[O-])c1`: the “% Inhibition @ 10 uM” value is listed as 0.035%.

For `CCn1c2ccccc2c2cc(CN3CCC(C)CC3)ccc21`, the “% Inhibition @ 10 uM” value is listed as -0.0494%.
